# Test results reported in PubChem BioAssay AID411 (National Center for Advancing Translational Sciences (NCATS), 2006).
# “And” between values parts separate entries of the source, which are not always exact repeats. Equal values may be shown once. The whole screen tested about 72,000 compounds, of which about 1,600 (2.2%) were called active. Inconclusive results, whose numbers are uncertain, are shown with a selection of clear calls. Calls follow the shape of the dose curve; as a rule, active = well fitted inhibition curve with a large enough effect; inconclusive = small, poorly fitted or top-dose-only effect; inactive = flat fitted curve, though single readings scatter. Potencies of inconclusive entries are doubtful fits and often do not repeat.
# Target: Luciferin 4-monooxygenase (Photinus pyralis) (UniProt P08659)
# Experiment: qHTS Assay for Inhibitors of Firefly Luciferase; also: nearly all actives have a fitted effect of over 40% in size
# Conditions: purified firefly luciferase, luminescence, 8 min; series mostly up to 57.1 µM
# Summary of the method: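 Substrate buffer containing 10 uM ATP (pH 7.2 imidazole, Mg2+, KCl, detergent, BSA) is dispensed, compound pinned in, then luciferase/luciferin detector mix added. After 8 min at ambient temperature, light output is measured.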
# % is scaled to controls: 0 for no effect and ±100 for the full control effect; potency is read from the fitted curve at half-maximal effect; tags tell the direction and shape of the fitted curve.
# UniProt P08659, sequence (P08659 whole entry, looked up): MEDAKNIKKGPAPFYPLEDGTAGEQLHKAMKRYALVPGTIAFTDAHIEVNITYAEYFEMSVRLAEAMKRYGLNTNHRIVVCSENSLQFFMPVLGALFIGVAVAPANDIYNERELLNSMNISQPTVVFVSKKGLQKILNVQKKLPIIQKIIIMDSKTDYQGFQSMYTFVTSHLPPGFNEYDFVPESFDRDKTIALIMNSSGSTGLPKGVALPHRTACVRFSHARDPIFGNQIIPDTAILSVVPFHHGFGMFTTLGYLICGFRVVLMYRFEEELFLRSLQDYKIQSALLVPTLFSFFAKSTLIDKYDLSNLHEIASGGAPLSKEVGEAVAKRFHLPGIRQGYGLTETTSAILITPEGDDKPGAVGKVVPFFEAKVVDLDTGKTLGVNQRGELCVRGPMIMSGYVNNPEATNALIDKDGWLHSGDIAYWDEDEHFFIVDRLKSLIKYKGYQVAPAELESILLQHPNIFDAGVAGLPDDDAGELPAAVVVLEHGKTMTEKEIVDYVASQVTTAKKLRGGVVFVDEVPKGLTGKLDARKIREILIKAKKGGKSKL
Compound,Potency,"activity change, negative = inhibition"
O=c1cc(-c2ccc(O)cc2)oc2cc(O)cc(O)c12,"inconclusive: 39.8 µM [inhibitor, single point] and inconclusive: 12.6 µM [inhibitor, partial curve]",
O=C(CSc1nnc(-c2ccco2)n1Cc1ccccc1)c1ccc(F)cc1,inactive,
O=C(NC1CCN(Cc2nnnn2CCc2ccccc2)CC1)c1ccccc1F,"inconclusive: 1.58 µM [inhibitor, full curve]",
COC(=O)c1ccc(NC(=O)c2cccc(OC)c2)cc1,"inconclusive: 25.1 µM [inhibitor, single point]",
CC(=O)Oc1ccc(N2C(=O)C3C(C2=O)C2(C)C=CC3(C)O2)cc1 (stereo not drawn),"inconclusive: 31.6 µM [inhibitor, partial curve]",
CCOc1ccc(NC(=O)CSc2nnc(-c3ccncc3)n2CC2CCCO2)cc1 (stereo not drawn),inactive,
O=S(=O)(/N=C(/Nc1cc(N2CCOCC2)ncn1)c1ccc(F)cc1)c1ccccc1,inactive,
COc1ccc(-c2nn(-c3ccccc3)cc2/C=N/n2cnnc2)cc1OC,"inconclusive: 25.1 µM [inhibitor, single point]",
COc1ccccc1NC(=O)c1cc2ccc(O)cc2o/c1=N\O,"inconclusive: 7.94 µM [inhibitor, partial curve]",
COc1ccc(-c2ccc(SCC(=O)N3CCOCC3)nn2)cc1OC,"inconclusive: 25.1 µM [inhibitor, partial curve]",
Cc1ccc(-n2c(C)cc(C(=O)CSc3nnnn3C)c2C)cc1,"inconclusive: 20 µM [inhibitor, single point]",
CC(C#N)Sc1ncnc2sc3c(c12)CCC3 (stereo not drawn),inactive,
CCOc1ccccc1N1CSC2=C(C#N)C(c3c(OC)ccc4ccccc34)CC(=O)N2C1 (stereo not drawn),"inconclusive: 7.94 µM [inhibitor, partial curve]",
COc1ccc(N2CCN(C(=O)CSc3ncccc3-c3nc4ccccc4[nH]3)CC2)cc1,active: 12.6 µM,
O=C(c1ccc2c(c1)OCO2)N1CCc2ccccc2C1,"inconclusive: 20 µM [inhibitor, single point]",
COc1ccc(C(=O)[C@H]2[C@H]3[C@@H](C(=O)[C@@H]4OC[C@H]3O4)[C@H]3C=Cc4ccccc4N32)c(OC)c1,,inactive: -10.1% [at 11.4 µM]
CCN(CC)S(=O)(=O)c1cc(C(=O)Nc2ccc(Cl)cn2)ccc1C,active: 7.94 µM,
Cc1cc(C(=O)Cn2nnc3ccccc3c2=O)c(C)n1Cc1cccs1,active: 6.31 µM,
Cc1occc1-c1nnc(SCC(=O)Nc2nccs2)n1CCc1ccccc1,inactive,
CCOc1ccc(NC(=O)c2ccc(N)cc2)cc1,active: 12.6 µM,
Nc1nc(-c2ccc3c(c2)CCCC3)cs1,active: 12.6 µM,

Compound,Potency,"activity change, negative = inhibition"
CN(C)c1ccc(/C=N/n2ncc3ccccc32)cc1,active: 3.98 µM,
C/C=C/c1ccc(OCCCNCC(C)O)c(OC)c1 (stereo not drawn),inactive,
CCN=C(N)CSS(=O)(=O)O,,inactive: -0.124% [at 11.4 µM]
CC1=C(C)CS(=O)N(S(=O)(=O)c2ccc(Cl)cc2)C1 (stereo not drawn),"inconclusive: 10 µM [inhibitor, partial curve]",
O=C(NC1CCCCC1)N1CCc2ccccc21,"inconclusive: 31.6 µM [inhibitor, single point]",
COc1ccc(NC(=O)c2oc3cc(C)c(C)cc3c2C)c(OC)c1,inactive,
CC1=C(C(=O)Nc2ccccc2)C(c2ccc(C)o2)n2c(s/c(=C\c3ccco3)c2=O)=N1 (stereo not drawn),inactive,
CCc1c(C(=O)Nc2nnc(C3CC3)s2)csc1C,inactive,
Oc1ccccc1OCc1nc2ccccc2s1,active: 20 µM,
O=C(O)CCCSc1nc2ccccc2s1,,inactive: 2.37% [at 11.4 µM]
Cn1c(NC(=O)c2ccccc2NC(=O)C(C)(C)C)nc2ccccc21,"inconclusive: 15.8 µM [inhibitor, partial curve]",
COc1ccc(C2CC(c3c(O)cc(C)oc3=O)=NCCS2)c(OC)c1 (stereo not drawn),inactive,
CNc1nc(-c2ccc(Cl)cc2)cs1,active: 10 µM,
N=C(N)C(N=Nc1ccccc1)C(=N)N (stereo not drawn),,inactive: -1.15% [at 11.4 µM]
Brc1ccc(-c2cnc(-c3cccs3)o2)cc1,"inconclusive: 25.1 µM [inhibitor, single point]",
CCOC(=O)Cn1nnnc1C(CC)N(Cc1cc2c(C)cc(C)cc2[nH]c1=O)C1CCCC1 (stereo not drawn),"inconclusive: 6.31 µM [inhibitor, full curve]",
CCCCCSc1nnc(-c2cc(Br)ccc2N)c(=O)[nH]1,inactive,
Cc1cc(N)n2ncc(-c3cccc(Br)c3)c2n1,"inconclusive: 20 µM [inhibitor, partial curve]",
Fc1ccc(NCc2cn3ccccc3n2)cc1,"inconclusive: 25.1 µM [inhibitor, single point]",
O=C1c2ccccc2S(=O)(=O)N1CC1CC(c2ccccc2)=NO1 (stereo not drawn),"inconclusive: 15.8 µM [inhibitor, partial curve]",
CC(C)(C)c1ccc(-c2conc2N)cc1,active: 10 µM,

Compound,Potency,"activity change, negative = inhibition"
Cc1ccccc1-c1noc(-c2ccc(O)cc2)n1,active: 20 µM,
CO[C@H]1COC(=O)[C@H](C)COC(=O)C/C=C\[C@@H](C)[C@H](OC)COC(=O)C/C=C\[C@@H]1C,,inactive: 2.04% [at 11.4 µM]
c1ccc(-c2cc(N3CCCCC3)ncn2)cc1,"inconclusive: 25.1 µM [inhibitor, single point]",
COc1cc(NC(=O)CC(C)C)ccc1NC(=O)c1ccco1,active: 15.8 µM,
Nc1nc(Nc2cccc(F)c2)nc2ccccc12,active: 10 µM,
Cc1ccc2nc3ccc(N4CCCC4)nn3c(=O)c2c1,"inconclusive: 15.8 µM [inhibitor, partial curve]",
COc1ccc(-c2cc(C(=O)NCCN3CCOCC3)c3ccccc3n2)cc1,"inconclusive: 25.1 µM [inhibitor, single point]",
CN(C)c1ccc(-c2ccccc2)nn1,"inconclusive: 20 µM [inhibitor, partial curve]",
Cc1c(/C(O)=C2/C(=O)C(=O)N(CCN3CCOCC3)C2c2cccs2)cnn1-c1ccccc1 (stereo not drawn),active: 12.6 µM,
CCOCC(=O)Nc1nc2ccc(C)cc2s1,active: 25.1 µM,
COc1cc(SC)ccc1C(=O)Nc1ccon1,active: 25.1 µM,
CCn1c(SCC(=O)Nc2ccc3c(c2)OCCO3)nnc1-c1ccco1,"inconclusive: 15.8 µM [inhibitor, partial curve]",
O=C(Nc1ccc(CN2CCOCC2)cc1)c1cccs1,active: 25.1 µM,
O=C(CSc1ncnc2sc3c(c12)CCCC3)c1ccco1,active: 31.6 µM,
c1ccc(OCCSc2nnnn2-c2ccccc2)cc1,"inconclusive: 25.1 µM [inhibitor, single point]",
CCc1ccc(OCc2nc(-c3ccccn3)no2)c(Br)c1,active: 12.6 µM,
Cc1cc(C(=O)OCCO)c(C#N)c(N)n1,inactive,
COc1cccc(-c2nnc(NC(=O)c3ccc(S(=O)(=O)N4CCOCC4)cc3)o2)c1,inactive,
O=C1C(C=NCC2CCCO2)=C(O)c2ccccc21 (stereo not drawn),active: 15.8 µM,
CC1(C)CC(NC(=O)c2coc(=O)c(Br)c2)CC(C)(C)N1,inactive,
COc1ccc(C(=O)c2c[nH]c3ccccc23)cc1,active: 10 µM,

Compound,Potency,"activity change, negative = inhibition"
COC(=O)Cc1ccc(NC(=O)c2cccs2)cc1,"inconclusive: 20 µM [inhibitor, single point]",
O=C(CN(C(=O)CNS(=O)(=O)c1ccccc1)c1ccc2c(c1)OCCO2)NC1CCCCC1,inactive,
COC(=O)COc1cccc(NC(=O)COc2ccccc2)c1,inactive,
Cc1nn2cc(-c3ccc(N)cc3)nc2s1,"inconclusive: 15.8 µM [inhibitor, partial curve]",
C=CCn1c(=N)c(C(=O)OC)cc2c(=O)n3cccc(C)c3nc21,inactive,
O=C(Nc1ccc(CN2CCOCC2)cc1)c1cccc(F)c1,"inconclusive: 20 µM [inhibitor, single point]",
C=CCNS(=O)(=O)c1ccc(OC)c(C)c1,inactive,
CCN(c1ccccc1)c1cc(NC)[n+](C)c(C)n1,inactive,
O=C(Nc1ccc2c(c1)OCCO2)c1cnc2n(c1=O)CCS2,"inconclusive: 20 µM [inhibitor, partial curve]",
COc1ccc(NC(=O)Nc2cccs2)cc1OC,active: 25.1 µM,
COc1cc2c(cc1OC)-c1cc(Nc3ccc4c(c3)OCCO4)nc(=O)n1CC2,"inconclusive: 5.01 µM [inhibitor, partial curve]",
CCCC(=O)Nc1ccc(-c2nc3cc(C)c(C)cc3o2)cc1,"inconclusive: 2 µM [inhibitor, full curve]",
O=C(Nc1cnc2ccccc2c1)c1ccncc1,"inconclusive: 25.1 µM [inhibitor, single point]",
Cc1cnc(CNc2ccnc(-c3ccccc3C)n2)cn1,,inactive: -1.83% [at 2.29 µM]
Cc1cccc(-c2nsc(SCC(=O)N3CCCC3)n2)c1,"inconclusive: 20 µM [inhibitor, single point]",
COc1ccc(CC(=O)Nc2nncs2)cc1OC,inactive,
CCOc1ccc2nc(NC(=O)C(CC)Sc3nc(C)cc(=O)[nH]3)sc2c1 (stereo not drawn),"inconclusive: 15.8 µM [inhibitor, partial curve]",
CCCCC(=O)Nc1ccc2c(c1)nc1n2CCSC1,"inconclusive: 20 µM [inhibitor, single point]",
Oc1cc2c(cc1O)[C@H](c1ccccc1)CNCC2,"inconclusive: 31.6 µM [inhibitor, partial curve]",
Clc1ccc(-n2ncc3c(N4CCCC4)ncnc32)cc1,"inconclusive: 0.501 µM [inhibitor, full curve]",
